PubChem BioAssay AID1919004 (Molecular Pharmacology Branch, DTP, NCI, 2023)
The source holds more than one record for some entries. This list holds those alone. The source may hold further records. Values that stand side by side are repeats in other runs, samples, wells, individuals or studies. Counts like (3×) give the number of equal values in this list. Marks such as [2022-09] give the month of the run.

System: 883617-216-R-J1-PDC complex spheroids, growth, % test/control
Assay: Anticancer human tumor 883617-216-R-J1-PDC patient-derived bladder carcinoma cell line growth inhibition [AhR]
Conditions: for viability, T/C: stronger effect = lower value; for IC50: compound alone
Text: Multicellular complex tumor spheroid response to aryl hydrocarbon receptor antagonists in combination with a variety of drugs and investigational agents in selected tumor cell lines
The current study was undertaken to assess response to aryl hydrocarbon receptor antagonists in combination with standard-of-care drugs and investigational agents in solid tumor complex spheroid models. Complex spheroids include a stromal component modeled by human endothelial cells (HUVEC) and fibroblasts modeled by human mesenchymal stem cells (MSCs). The concentration ranges selected for each drug and investigational agent were based upon clinically achievable concentrations if the clinical Cmax of the agent was known.
Compounds. The drugs and investigational agents: BAY 2416964 (NSC825713), GNF351 (NSC835774), CH-223191 (NSC835775), CPI-455 (NSC825282), aza-TdCyd (NSC777586), decitabine (NSC127716), belinostat (NSC758774), entinostat (NSC756642), pevonedistat (NSC761192), tazemetostat (NSC777109), talazoparib (NSC765396), olaparib (NSC753686), selinexor (NSC780203), nedisertib (M3814, NSC802822), bortezomib (NSC756655), venetoclax (NSC766270), doxorubicin (NSC123127), elimusertib (BAY189344, NSC800525), ceralasertib (AZD6738, NSC777638), TAK-243 (NSC785004), alisertib (NSC759677), etoposide (NSC141540), topotecan (NSC609699), eribulin (NSC707389), gemcitabine (NSC613327), carboplatin (NSC241240), cisplatin (NSC119875), and SN-38 (NSC673596) were obtained from the National Cancer Institute (NCI) Developmental Therapeutics Program Chemical Repository (32). The FDA-approved anticancer drug set is available from the Developmental Therapeutics Program at https://dtp.cancer.gov/organization/dscb/obtaining/available plates.htm. […] The stock solutions were prepared in dimethyl sulfoxide (DMSO, Sigma-Aldrich, St. Louis, MO, cat. D2650), except for the platinum compounds which were prepared in saline (Quality Biological, Gaithersburg, MD, cat. 114-055-101), at 800-fold the tested concentration and stored at -70 degrees C prior to their use. All drugs and investigational agents were tested over a range starting from a high concentration at or near the clinical Cmax and decreasing in half-log increments. If the clinical Cmax for an agent had not been determined, the highest concentration tested was 10 microM (Table 1).
Cell Culture. All cells were maintained in an incubator at 37 degrees C and 5% CO2 with 95% humidity. The PDC lines were cultured according to standard operating procedures established by the NCI PDMR (https://pdmr.cancer.gov). Briefly, all PDCs were thawed and cultured in Matrigel-coated flasks prepared with a working solution of 1X Ham's F-12 nutrient mix, without supplementation (Invitrogen, Waltham, MA, cat. 11765054), 100 U/mL penicillin-streptomycin (Invitrogen, cat. 15140122), and 2.5% Matrigel (Corning Inc., Corning, NY, cat. 354248) for the first three passages. All PDCs were cultured in complete DMEM/F-12 media containing advanced DMEM/F-12 (Invitrogen, cat. 12634028), 4.9% defined fetal bovine serum, heat inactivated (HyClone Laboratories Inc., Logan, UT, cat. SH30070.03HI), 389 ng/mL hydrocortisone (Sigma-Aldrich, cat. H4001), 9.7 ng/mL human EGF recombinant protein (Invitrogen, cat. PHG0313), 23.4 microg/mL adenine (Sigma-Aldrich, cat. A2786), 97.3 U/mL penicillin-streptomycin (Invitrogen, cat. 15140122), 1.9 mM L-glutamine (Invitrogen, cat. 25030081), and 9.7 microM Y-27632 dihydrochloride (Tocris Bioscience, Bristol, United Kingdom, cat. 1254). The PDCs were cultured in complete DMEM/F12 media without 10 microM Y-27632 dihydrochloride for at least two passages prior to the screen. The established cell lines NCI-H1341 and […] were cultured in DMEM/F-12, HEPES (Invitrogen, cat. 11330032), 5% defined fetal bovine serum (HyClone Laboratories Inc., cat. SH30070.03), ITS premix universal culture supplement [insulin (5 microg/mL), transferrin (5 microg/mL), and selenious acid (5 ng/mL)] […]
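Further: exposure lasted 7 days after dosing on day 3 of spheroid growth.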

CC(CO)NC(=O)c1cc(-c2ccc(Cl)cc2)nn(-c2cnn(C)c2)c1=O (stereo not given)
viability, T/C (compound alone 0.1 µM): 106, 92.2 (2×), 105 (2×), 81.8, 76.9, 53.5, 96.5, 113 (2×), 76.1, 143, 91.6, 71.5, 108, 95.5, 64, 98.5, 77.4% | viability, T/C (compound alone 0.316 µM): 117, 106, 127, 99.2, 79.5, 74.1, 120, 90.4, 68.2, 90.8, 85.2 (2×), 100, 89.1, 84.3, 88, 107, 91.8, 113, 94, 115% | viability, T/C (compound alone 1 µM): 74.9, 101, 67, 83.7, 67.7, 56.5, 94.6, 72.6, 126, 98.2, 81.6, 96.8, 111, 87.8, 78.9, 68.2, 55.9, 99.2 (2×), 75.2, 102% | viability, T/C (compound alone 3.16 µM): 49.3, 78.3, 106 (2×), 74.5, 64.5, 86.6, 78.2, 75.5, 84.7, 72.8, 77.8, 52.1, 70.5, 84.4, 79.6, 77.1, 70.9, 57% | viability, T/C (compound alone 10 µM): 89.1, 89.8, 83.9, 68.3, 55.5, 74.7, 105, 98.8, 119, 79.3, 75.7, 85.3, 93.9, 111, 67.7, 60.8, 86.9, 64.8, 82.9%

Nc1ccn(C2OC(CO)C(O)C2(F)F)c(=O)n1 (stereo not given)
IC50: > 10 µM [2022-05] and < 31.6 nM (2×) [2022-06]

Cc1cncc(-c2nc(NCCc3c[nH]c4ccccc34)c3ncn(C(C)C)c3n2)c1
viability, T/C (compound alone 0.316 µM): 89.3, 79.4, 91.6, 78, 82.8, 94, 87.1, 86.4, 91.2, 86.6, 105, 84.1, 78.9, 89.7, 99.7, 96.6, 92.2, 89.6, 96.8% | viability, T/C (compound alone 3.16 µM): 111, 99.2, 97.4, 104, 91.1, 109, 101 (2×), 103 (2×), 89.6, 112, 121, 94.3, 94.1, 98.9, 102, 84.4, 98.2, 100, 126% | IC50 (run of 06/06/2022): 8.76 µM, 8.42 µM, > 10 µM, 9.36 µM, 8.73 µM, 9.98 µM, 8.62 µM, 9.33 µM, 9.79 µM, 7.7 µM, 8.46 µM, 9.06 µM

CC(C)CC(NC(=O)C(Cc1ccccc1)NC(=O)c1cnccn1)B(O)O (stereo not given)
viability, T/C (compound alone 0.00949 µM): 2.55% [2022-05] and 36.4%, 35.7% [2022-06]
